These results are taken from PubChem BioAssay AID1963576 (National Center for Advancing Translational Sciences (NCATS), 2024).

The campaign covered roughly 46,000 compounds. About 60 (0.1%) were called active. Roughly 3% stayed inconclusive and do not appear here. The call rests on the fitted dose curve; in most records, active means well fitted inhibition curve with a large enough effect; inconclusive means small, poorly fitted or top-dose-only effect; inactive means no such curve, though single readings can be large or run the other way. The list shows a part of the results.

This test in a line: Primary qHTS assay for Inhibitors of ovarian cancer metastasis using an organotypic tumor microenvironment (TME) model. Further: nearly all actives have a fitted effect of over 65% in size.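 On activity change, negative = inhibition: plate controls were DMSO wells for no effect and tomatine positive control wells for full effect.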 The following applies: SKOV3ip1-GFP adhesion/invasion on 3D omental model, fluorescence; series mostly up to 45.8 µM; activity change, negative = inhibition: at the top concentration. The procedure, abridged: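 Adhesion/invasion was scored as fixed GFP-labeled SKOV3ip1 cell counts (488/509 nm), normalized to DMSO and tomatine controls. Cancer cells in serum-free medium, with four compound doses (0.36-46 umol/L), sat 2 hr at RT then 16 hr at 37 C on a 48 hr fibroblast/mesothelial/ECM culture.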
For the compound `COc1ccc(C(CNC(=O)COc2cc(C)cc(C)c2)N2CCOCC2)cc1` (configuration not stated), the “activity change, negative = inhibition” value was inactive: -2.9%. For `O=C1c2ccccc2-c2onc3c(NCCO)cc(NC4CCCCC4)c1c23`, the “activity change, negative = inhibition” value is inactive: -6.74%.

Turning to `Cn1nccc1C(=O)NCc1ccc2c(c1)CCN2C(=O)c1ccc(Cl)cc1`, the “activity change, negative = inhibition” value is inactive: -2.4%. On the same count and under the same terms, next, `CC(Sc1oc(-c2cccs2)nc1S(=O)(=O)c1ccccc1)c1ccccc1` (configuration not stated): inactive: 1.51%; `Cc1c(C(=O)Nc2ccc(F)cc2F)sc2nc3n(c(=O)c12)N=C(c1ccccc1)CS3`: inactive: -3.79%. For the compound `O=C(Nc1cccc(NC(=O)c2ccccc2Cl)c1)c1cccc(Br)c1`, the compound was classed as inactive. Take `CCC(CC)[C@H](NC(C)=O)[C@@H]1[C@H](O)[C@@H](C(=O)O)C[C@@H]1N=C(N)N`: the “activity change, negative = inhibition” value is inactive: -21.2%. For `NC(=O)NN=Cc1ccc([N+](=O)[O-])o1`, the “activity change, negative = inhibition” value is inactive: 12.2%.

For the compound `Cc1ccc(NC(=O)CSc2nc(=O)cc(N)n2CCc2ccccc2)cc1`, the “activity change, negative = inhibition” value is inactive: 16.3%. As for `CCc1ccccc1NC(=O)C1CCCN(c2cnccn2)C1` (configuration not stated), the “activity change, negative = inhibition” value is inactive: 2.6%.

Regarding `O=C(Nc1ccccc1C(F)(F)F)N1CCN(c2ccc3nnc(-c4ccc(F)cc4)n3n2)CC1`, the “activity change, negative = inhibition” value was inactive: -18.8%. `O=C(CCn1cnc2onc(-c3ccc(F)cc3)c2c1=O)N1CCN(c2cccc(Cl)c2)CC1`: the result was inactive.

Take `Cc1ccc(NC(=O)Cn2c(-c3nonc3N)nc3ccccc32)cc1Cl`: the call was inactive. For the compound `CCOc1ccc(CNC(=O)C2Cc3cc(S(=O)(=O)N4CCCCCC4)ccc3N2C(C)=O)cc1` (configuration not stated), the “activity change, negative = inhibition” value is inactive: -2.46%.

Consider `CCC(C(=O)NCCCN(CC)CC)n1ncn2c(cc3occc32)c1=O` (configuration not stated), for which the outcome was inactive. Turning to `O=C(c1ccc(F)cc1F)N1CCC(c2noc(-c3ccc(S(=O)(=O)N4CCCC4)cc3)n2)CC1`, the “activity change, negative = inhibition” value was inactive: 8%. As for `N#Cc1cccc(NC(=O)c2ccc3c(c2)N(Cc2cccc(Cl)c2)C(=O)c2ccccc2S3(=O)=O)c1`, the result was inactive. With `O=C(Nc1nnc(S(=O)(=O)N2CCOCC2)s1)c1ccc(F)cc1`, the “activity change, negative = inhibition” value was inactive: -0.942%.

Take `CCOc1ccc(OCC)c(NC(=O)C2CCN(c3cnccn3)CC2)c1`: the “activity change, negative = inhibition” value was inactive: -1.47%. As for `COc1ccc(C2NC(=O)N(C)C3=C2C(=O)N(c2ccc(C)cc2)C3)cc1` (configuration not stated), the compound was classed as inactive.

Take `Cn1c(=O)oc2cc(S(=O)(=O)Nc3ccc(O)cc3)ccc21`: the “activity change, negative = inhibition” value is inactive: -2.23%. With `O=C(C=Cc1c(C(=O)O)[nH]c2cc(Cl)cc(Cl)c12)Nc1ccccc1`, the “activity change, negative = inhibition” value was inactive: -17.2%. With `CCc1ccc(NC(=O)CN(Cc2ccccc2)S(=O)(=O)c2ccc3nc(C)sc3c2)cc1`, the “activity change, negative = inhibition” value was inactive: -1.77%. For the compound `CCc1ccc(S(=O)(=O)c2nnn3c2nc(NCc2ccccc2OC)c2cc(Cl)ccc23)cc1`, the “activity change, negative = inhibition” value is inactive: 0.872%. On to `Cc1ccccc1-c1noc(-c2ccccc2OCC(=O)Nc2ccccc2[N+](=O)[O-])n1`, for which the compound was classed as inactive.

In the case of `Cc1ccc(C)c(N2CCN(C(=O)C(C)n3c(C)c4cnn(-c5ccccc5)c(=O)c4c3C)CC2)c1` (configuration not stated), the “activity change, negative = inhibition” value is inactive: 77%.

Take `COc1ccc(Cl)cc1N(C)C(=O)C(=O)Nc1ccc2nc3n(c(=O)c2c1)CCCCC3`: the “activity change, negative = inhibition” value was inactive: 1.14%.

For the compound `COc1ccc(NC(=O)CSc2nc(-c3ccccc3)nc3c2Cc2c(CO)cnc(C)c2O3)cc1Cl`, the “activity change, negative = inhibition” value was inactive: 1.6%. For `Cc1ccc(CN(C(=O)COc2ccc(Br)cc2)c2ccccn2)o1`, the call was inactive.

As for `Cc1ccc(N2CCN(C(=O)c3noc4c3COc3ccc(C)cc3-4)CC2)c(C)c1`, the “activity change, negative = inhibition” value was inactive: -8.44%. On to `Cc1ccccc1CSc1nc2cccnc2n1Cc1ccc(C(=O)NCCc2cccs2)cc1`, for which the “activity change, negative = inhibition” value was inactive: -1.38%. Regarding `COc1ccccc1C1C=C(c2ccc(Cl)cc2)Nc2nc(-c3ccc(Cl)cc3)nn21` (configuration not stated), the “activity change, negative = inhibition” value was inactive: -2.91%.

For the compound `Cc1ccc2oc(=O)n(CCNC(=O)Nc3ccc(C)c(F)c3)c2c1`, the “activity change, negative = inhibition” value was inactive: -1.26%. Turning to `c1ccc(-c2nn3c(c2-c2ccnc4cc(OCCN5CCOCC5)ccc24)CCC3)nc1`, the “activity change, negative = inhibition” value is inactive: 23.4%. As to `O=C(CSCc1cnn(-c2ccccc2)c1-n1cccc1)Nc1ccc(F)cc1F`, the compound was called inactive. As to `Cc1ccc(CNC(=O)c2c(-c3cccc(Br)c3)noc2C)o1`, the “activity change, negative = inhibition” value is inactive: -16.8%.

`COC(=O)c1ccc(OCC2c3cc(OC)c(OC)cc3CCN2C(=O)c2ccccc2F)cc1` (configuration not stated): the “activity change, negative = inhibition” value is inactive: 2.27%. Consider `Cc1ccc(C)c(Cn2nc(C)n3c(cc4cc(C)ccc43)c2=O)c1`, for which the “activity change, negative = inhibition” value was inactive: -2.46%. Consider `CC(Nc1ccc(-c2nc(-c3ccccn3)no2)cc1[N+](=O)[O-])c1ccccc1` (configuration not stated), for which the “activity change, negative = inhibition” value was inactive: -6.8%.

For the compound `COc1ccc(Nc2nc(N)nc(CSc3nc4cc(OC)ccc4s3)n2)cc1`, the “activity change, negative = inhibition” value was inactive: 9.86%. Turning to `CC(C)c1nn2c(=O)cc(COC(=O)CNC(=O)c3ccccc3)nc2s1`, the “activity change, negative = inhibition” value is inactive: 132%. As to `CCc1ccc(NC(=O)c2cc3c(=O)n(Cc4cccnc4)ccc3nc2C)cc1`, the “activity change, negative = inhibition” value is inactive: 1.94%.

For the compound `O=C(O)Cn1nnc(-c2cc(N3CCC(Oc4cc(F)ccc4Br)CC3)no2)n1`, the “activity change, negative = inhibition” value is inactive: 1.82%. `Cc1cccc(C(=O)Nc2cccc(OCc3cc(=O)n4c(C)csc4n3)c2)c1`: the compound was classed as inactive. On to `COC(=O)c1ccc(Cl)c(NC(=O)C2CCN(S(=O)(=O)Cc3ccccc3)CC2)c1`, for which the result was inactive. For `CCc1ccc(NC(=O)C(=O)NCC(c2cccnc2)N2CCOCC2)cc1` (configuration not stated), the “activity change, negative = inhibition” value is inactive: 3.89%.

Turning to `CCn1cc(C(=O)N(C)Cc2ccccc2)c(=O)c2cc(S(=O)(=O)N3CCCCCC3)ccc21`, the compound was called inactive.
